Test results reported in PubChem BioAssay (NCI).
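In this assay, cells in 96-well plates receive the compound at five concentrations for 48 hours. Endpoints are linearly interpolated between the surrounding concentrations. The concentration for 50% growth inhibition is given as GI50. TGI denotes the concentration required for complete inhibition of growth.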

Tested on: NCI-H322M lung
Assay: growth of human tumour cells (NCI), 48 h

## O=C(N/N=C/c1ccsc1)c1[nH]c2ccc(Br)cc2c1-c1ccccc1
  GI50: 1.08 µM
  TGI: 56.8 µM
